From PubChem BioAssay AID463173 (ICCB-Longwood Screening Facility, Harvard Medical School, 2010) come the findings set out here.

Molecules are shown by their SMILES. In all, about 52,000 compounds went through this assay and about 1,700 (3.3%) were called active. Cut-off read from the data, not from the text of the source: active = survival mostly below about 52% (no sharp cut-off); inactive = mostly above about 56%. The list shows a part of the results.

This test concerns Wild type. In words: growth inhibition of S. aureus wild type versus tarO mutant, primary screen, teichoic acid synthesis inhibitors, RN4220, OD600 (AID 463173). The note with it: S. aureus RN4220 wild type/DeltatarO growth, OD600, 18 h, stronger effect = lower value, screened at 18.75 µg/mL (by protocol).
With `Cc1cc(-c2ccc(C)c(S(=O)(=O)Nc3ccc(C)c(N(C)C)c3)c2)on1`, the survival is inactive: 71%.
Regarding `O=C(NC1(C(F)(F)F)N=C(c2ccccc2)N(Cc2ccccc2)C1=O)c1ccc(F)cc1` (stereo not drawn), the survival was inactive: 77%.
Regarding `O=C(CCCc1nc(-c2ccc(Cl)cc2)no1)NCc1ccco1`, the survival is inactive: 88%.
As to `CCN(CC)c1cc(NC2CCCCC2)c2c3c(onc13)-c1ccccc1C2=O`, the survival is active: 5%.
Turning to `CC1CCN(S(=O)(=O)c2ccc3c(c2)N(CC(=O)N(C)Cc2ccccc2)C(=O)CO3)CC1`, the survival was inactive: 91%.
To `Cn1cnc(S(=O)(=O)N2CCC(C(=O)Nc3ccc(OC(F)(F)F)cc3)CC2)c1` belongs inactive: 83%; to `C/C(=N\NC(=O)C(F)(F)F)c1ccccc1O`, inactive: 112%; to `O=C(c1ccc2c(c1)N(Cc1ccccc1)C(=O)c1ccccc1S2(=O)=O)N1CCC(Cc2ccccc2)CC1`, inactive: 80%.
For `Cc1cc(C)c(NC(=O)Cn2nnc3sc4c(c3c2=O)CCC(C(C)(C)C)C4)c(C)c1` (stereo not drawn), the survival was inactive: 83%.
On to `Cc1ccccc1CN1C(=O)C(O)(c2c[nH]c3ccccc23)c2cc(Cl)ccc21` (stereo not drawn), for which the survival was active: -11%.
In the case of `COc1cccc(CNC(=O)C2CCCN(c3nn4cc(-c5ccc(C)cc5)nc4s3)C2)c1` (stereo not drawn), the survival is inactive: 80%.
Turning to `O=c1c2sc3ccccc3c2n(Cc2cccc(Cl)c2)c(=O)n1Cc1ccc(F)cc1`, the survival was inactive: 80%.
For the compound `Cc1nc2cc3ccccc3cc2c(=O)[nH]1`, the survival is inactive: 110%.
To `CCCCN1C(C(=O)c2ccccc2)=C(OC(=O)CC)c2ccccc2S1(=O)=O` belongs active: 0%.
Turning to `COc1cc(C2c3c(-c4ccccc4O)n[nH]c3C(=O)N2Cc2ccncc2)cc(OC)c1OC` (stereo not drawn), the survival was inactive: 89%.
In the case of `N#Cc1c(NC(=O)c2ccco2)sc2c1CCCC2` it was inactive: 104%; in that of `COc1ccc(CNC(=O)C2CCN(C(=O)N3CCOc4ccc(C)cc43)CC2)cc1`, inactive: 80%.
As to `CC(C)Cn1c(SCC(N)=O)nc2ccccc2c1=O`, the survival was inactive: 99%.
Take `CCc1cc(C(=O)N2CCN(c3ccccc3)CC2)no1`: the survival was inactive: 69%.
In the case of `CC1CCCN(C(=O)c2ccc(CSc3nc4ccncc4n3Cc3ccccc3)cc2)C1` (stereo not drawn), the survival is inactive: 107%.
In the case of `O=C(NCc1ccc(Cl)cc1)c1cc2cccc3c2n1CCS3`, the survival is inactive: 73%.
In the case of `N#C/C(=C\Nc1ccccc1O)c1nc2ccccc2o1`, the survival was inactive: 41%.
Regarding `Cc1nnc(SCCNS(=O)(=O)c2ccccc2)s1`, the survival is inactive: 107%.
Take `Cc1cccc(-n2c(=O)c3c(c4cc(C)ccc4n3C)n(CC(=O)Nc3ccc(C)c(C)c3)c2=O)c1`: the survival was inactive: 71%.
Regarding `COc1ccccc1N1CCN(c2c3c(nc4nncn24)CCC3)CC1`, the survival was inactive: 87%.
In the case of `CC(C)(C)NC(=O)Cn1cc(S(=O)(=O)Cc2ccccc2Cl)c2ccccc21` it was inactive: 68%.
On to `Cc1cccc(NC(=O)Cn2c(=O)n(Cc3nc(-c4ccccc4)no3)c(=O)c3ccccc32)c1`, for which the survival was inactive: 69%.
To `COC(=O)c1sccc1S(=O)(=O)N(CC(=O)NCc1ccc(F)cc1)c1ccccc1` belongs inactive: 69%.
On to `COc1ccc(C)cc1NS(=O)(=O)c1ccc2c(c1)CCCN2C(C)=O`, for which the survival was inactive: 131%.
In the case of `C=C(C)CC1N(CCc2ccccc2)C(=O)C2C(C(=O)O)C3C=CC21O3` (stereo not drawn) it was inactive: 111%; in that of `CCOC(=O)Cn1c(=N)n(CCOc2ccc(OC)cc2)c2ccccc21`, inactive: 70%.
In the case of `COc1ccc(-c2nc(SCC(=O)NCC3CCCO3)c(-c3ccc(C)cc3)[nH]2)cc1OC` (stereo not drawn) it was inactive: 73%; in that of `CCCCNC(=O)CN1CCN(c2ccc(NC(=O)c3ccc(OC)cc3)cc2C(=O)O)CC1`, inactive: 80%.
As to `COc1ccc(NC(=O)N2CCN(Cc3nc4ccc(C)cc4o3)CC2)cc1OC`, the survival was inactive: 99%.
Regarding `CN(C)c1ccc(-c2nnc(-c3cccnc3)o2)cc1`, the survival was inactive: 109%.
As to `COc1ccc(-c2c(C#N)c(SCC(=O)Nc3ccc(C)c(C)c3)nc(C)c2C(=O)Nc2ccccc2)cc1OC`, the survival was inactive: 85%.
In the case of `Cc1ccc(N(C)S(=O)(=O)c2nnc(NC(=O)c3ccco3)s2)cc1`, the survival was inactive: 69%.
`COc1cc2nc(NC(=O)c3ccc(S(=O)(=O)N4CCOCC4)cc3)sc2cc1OC`: the survival is inactive: 79%.
In the case of `O=C(CSc1nc2sc3c(c2c(=O)[nH]1)CCCC3)NCc1cccs1` it was inactive: 99%; in that of `O=C1CN=C(Nc2ccccc2Cl)N1Cc1ccccc1`, inactive: 107%; in that of `CCCS(=O)(=O)N1CC(=O)N(c2ccc(Cl)cc2C)C(C)(C(=O)NC2CCCC2)C1` (stereo not drawn), inactive: 127%.
With `Cc1ccc(OC(=O)c2ccc3snnc3c2)cc1`, the survival is inactive: 109%.
Regarding `COc1ccc(NC(=O)CSC2=Nc3ccccc3C3=NC(CCC(=O)NC4CCCCC4)C(=O)N23)cc1` (stereo not drawn), the survival is inactive: 81%.
For the compound `CC(=O)N1CCN(c2ccccc2F)CC1`, the survival is inactive: 107%.
For the compound `CCOC(=O)c1cccc(NC(=O)CCn2c(-c3ccc(F)cc3)cc(C(=O)OCC)c2C)c1`, the survival is inactive: 81%.
Regarding `CCC(SC1=NCCS1)C(=O)Nc1ccccc1OC` (stereo not drawn), the survival was inactive: 98%.
For the compound `O=c1[nH]c2cc3c(cc2cc1C(c1nnnn1C1CCCC1)N1CCc2ccccc21)OCCO3` (stereo not drawn), the survival is inactive: 104%.
In the case of `CC(=O)c1cccc(NC(=O)C2CCN(S(=O)(=O)c3ccc4c(c3)oc(=O)n4C)CC2)c1`, the survival is inactive: 90%.
To `COc1c(C)cccc1C(=O)Nc1cccc2ccc(C)nc12` belongs active: -14%.
Consider `O=C(CSCc1ccccc1Cl)N1CCN(c2ccc(Cl)cc2)CC1`, for which the survival was inactive: 81%.
For `CC1CCCCN1S(=O)(=O)c1ccc(S(=O)(=O)NCc2ccc(F)cc2)cc1` (stereo not drawn), the survival was inactive: 109%.
For `COc1ccc(Cn2ccn(Cc3cccc(OC)c3)c(=O)c2=O)cc1`, the survival is inactive: 82%.
Consider `CCOC(=O)C1CCN(C(=O)c2ccc(-n3ccc4ccccc43)s2)CC1`, for which the survival was inactive: 71%.
Consider `Cc1ccccc1C1CC(=O)Nc2ccc3ccccc3c21` (stereo not drawn), for which the survival is inactive: 84%.
On to `Cc1cccc(NC(=O)N2CC(=O)Nc3sc4c(c3C2c2ccccc2)CCCC4)c1C` (stereo not drawn), for which the survival is inactive: 76%.
Take `Cc1ccc(C(=O)c2cn(CC(=O)Nc3ccc(C)cc3Cl)c3nc(C)ccc3c2=O)cc1`: the survival was inactive: 95%.
Take `CCOc1cc(CNC(=O)c2ccc3c(c2)NC(=O)C2CCCCN32)cc(OCC)c1OCC` (stereo not drawn): the survival is inactive: 94%.
In the case of `Cc1ccc(Cl)cc1N1CCN(C(=O)c2ccc3c(c2)N(Cc2ccc(F)cc2)CCS3)CC1`, the survival was inactive: 83%.
